Some of the results follow.
test system: T1, C. trachomatis L2/434/Bu expressing GFP (CTL2-GFP); design: species or system HeLa; C. trachomatis total inclusion area by high-content imaging, normalised to DMSO; settings: total inclusion area; 28.5 h, 10 µM; inhibitor
T1 construct: L2/434/Bu GFP intracellular growth in HeLa cells
Method in brief: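 Imaging read-out: GFP inclusions and Hoechst nuclei captured by high-content imaging after fixation. Inclusion area/number = chlamydial growth; nuclei count = host cell viability. MIC calculated per earlier method.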

SMILES	% of control remaining
COc1cccc(NC(=O)c2ccc(-c3cc(C(F)(F)F)cc(C(F)(F)F)c3)nc2N(C)C)c1 [CBK106028]	79.2908
CCc1nc2c(OCc3ccccc3)cccn2c1N(C)C(=O)Nc1ccccc1OC [CBK147890]	126.386
Cc1ccc(NC(=O)COc2ccccc2)c(NC(=O)c2ccco2)c1 [CBK266809]	107.482
NCCn1cc(-c2cccc(F)c2)c(C2CCOCC2)n1 [CBK281696]	115.837
CC1=CC(=O)Nc2ccccc2S1 [CBK028872]	149.607
Fc1ccc(-c2[nH]c3ncccc3c2CN2CCOCC2)cc1 [CBK285310]	101.032
COc1cccc(Oc2nccnc2-c2ccc3c(c2)OCO3)c1 [CBK106704]	102.024
CC/C(=N\C(N)=O)c1ccccc1 [CBK009865]	81.7975
O=P(O)(CCc1ccccc1)CN1CCOCC1 [CBK262305]	112.113
Nc1ncc(-c2ccc(OC(F)(F)F)cc2)c2cccnc12 [CBK067594]	86.0872
CCCC/C=C/c1ccc(Nc2ccc3c(c2)OCCO3)nc1 [CBK037774]	112.175
Cn1cc(I)c(C(=O)NNC(=S)Nc2ccc(S(N)(=O)=O)cc2)n1 [CBK267066]	121.712
CC(=O)NC(Cc1c[nH]c2ccccc12)/C(C)=N/O (stereo not shown) [CBK022711]	111.199
Nc1c(N(CCO)C(=O)C2CCCC2)c(=O)[nH]c(=O)n1Cc1ccccc1 [CBK297490]	104.293
O=C(NC1CCCCC1)c1ccc(-n2ccnc2)c(-n2cccc2)c1 [CBK285365]	105.674
O=C(N/N=C/c1cc2c(cc1Br)OCO2)c1ccc(CN2CCOCC2)cc1 [CBK262721]	77.3324
CC(C)CNC(=O)N1CCN(C2CCN(C)CC2)CC1 [CBK155902]	96.2406
COC(=O)CCc1ccc(S(=O)(=O)N2CCCN(Cc3cccc(Cl)c3Cl)CC2)cc1 [CBK062988]	29.8885
CCNC(=O)CN1CCN(C(C(=O)O)c2c[nH]c3ccc(C)cc23)CC1 (stereo not shown) [CBK286694]	78.9781
Cc1occc1-c1nnc(SCC(=O)Nc2ccccc2)n1C [CBK270308]	103.722
CC(NC(=O)c1n[nH]c2c1CCC2)c1cccnc1 (stereo not shown) [CBK281488]	99.3049
COc1cc(C(=O)Nc2ccc(N3CCN(C)CC3)cc2)ccc1OCc1ccc(Cl)cc1 [CBK266116]	60.1138
Fc1cc(Br)c(CNCc2ncc[nH]2)c(N2CCCCC2)c1F [CBK304243]	2.111
CCc1nc2c(OCc3ccccc3)cccn2c1N(Cc1ccc(OC)cc1)C(C)=O [CBK147887]	97.3648
Cc1nn(C)cc1CNC(=O)C1C2CCC(C2)C1C(=O)O (stereo not shown) [CBK286875]	105.34
C[C@@H]1C(=O)Nc2ccc(F)cc2N1C(=O)N1CCCC1 [CBK007936]	75.0764

SMILES	% of control remaining
CCOc1ccc2c(c1)C(=O)c1cc(OCC(=O)O)ccc1-2 [CBK286693]	78.5664
Nc1ncc(-c2cccs2)nc1-c1ccc(C(=O)O)cc1 [CBK064133]	93.4797
CCCCNc1nnc(-c2nn(C)cc2Cl)s1 [CBK288021]	85.2968
Cc1ccc(S(=O)(=O)NC(C)(C)CSc2nnc[nH]2)cc1 [CBK268374]	106.833
CCOC(=O)C1CC1CN1CCN(S(=O)(=O)c2ccc(OCC)c3ncccc23)CC1 (stereo not shown) [CBK062785]	81.4142
CN1CCC(C(=O)Nc2cnc(-c3cccc(OC(F)(F)F)c3)c(-c3cccnc3)n2)CC1 [CBK036882]	127.703
CC(C)Nc1cncc(OCC2CN(C)CCN2C)n1 (stereo not shown) [CBK115602]	104.644
Nc1nc(C2CC(N)C2)cc(N2CCC(Oc3ccccc3F)CC2)n1 (stereo not shown) [CBK306909]	24.2498
NC(=O)Nc1ccc2c(c1)ncn2C1CCCCC1 [CBK288176]	113.599
Cc1ccc(-c2nc(C3CCCN3C(=O)C3CC3C(=O)O)n3ccccc23)cc1 (stereo not shown) [CBK046559]	138.535
COc1ccc(/C=C(\C)C(=O)Nc2cccnc2N2CCNCC2)cc1OC [CBK034124T]	82.5428
COc1ccc(-c2cn(-c3ccc(OC)c(OC)c3)nn2)cc1 [CBK113001]	73.493
CS(=O)(=O)CCOCCNC(=O)c1cc(Br)cnc1Cl [CBK305178]	96.764
CCn1c(COc2cccc(C)c2)nnc1SCC(=O)c1ccccc1 [CBK267143]	102.078
CC1(C)CC(=O)C=C(C(=O)Nc2cncc(OC3CCNCC3)n2)O1 [CBK038922T]	99.3472
CC(C)(CO)CNc1nc(-c2cc(C(F)(F)F)cc(C(F)(F)F)c2)cnc1N [CBK063490]	104.79
Cc1ccc(NC(=O)CN2C(=O)c3ccccc3C2=O)c(O)c1 [CBK270028]	101.681
CC(NC(=O)N1CCSCC1)c1cccc(Br)c1 (stereo not shown) [CBK306475]	57.8143
CC(=O)Nc1cccc(NC(=O)N2CCN(Cc3ccccc3)CC2)c1 [CBK155643]	73.0272
COc1cc2c(cc1OC)C1(CCN(CCCC(F)(F)F)CC1)NC(=O)C2 [CBK039859]	72.3856
CCCCn1c(SCc2nc(-c3ccncc3)no2)nc2ccsc2c1=O [CBK288576]	100.695
Cc1cc(C(=O)C(C)Sc2nnc(N)s2)c(C)n1-c1ccccc1 (stereo not shown) [CBK297916]	95.7039
N#C/C(=C\c1ccc2noc(-c3ccccc3)c2c1)c1nc(-c2cc3ccccc3oc2=O)cs1 [CBK267269]	98.1864
CC(C)CNCC1CC(C(=O)N2CCC(Cc3ccccc3)CC2)=NO1 (stereo not shown) [CBK003718C]	112.808
CCOC(=O)C1CCCN(c2c(C#N)cnc3ccc(Cl)cc23)C1 (stereo not shown) [CBK304405]	52.6387
O=C(Nc1ccccc1C(=O)O)c1cc(S(=O)(=O)Nc2cccc([N+](=O)[O-])c2)ccc1Cl [CBK263234]	65.6071
